According to ChEMBL document CHEMBL1132690, “Design, synthesis, and biological evaluation of potent thiazine- and thiazepine-based matrix metalloproteinase inhibitors” (J Med Chem, 1999):

These compounds were tested against T1, Interstitial collagenase (Homo sapiens, UniProt P03956).
T1 sequence (P03956 whole entry): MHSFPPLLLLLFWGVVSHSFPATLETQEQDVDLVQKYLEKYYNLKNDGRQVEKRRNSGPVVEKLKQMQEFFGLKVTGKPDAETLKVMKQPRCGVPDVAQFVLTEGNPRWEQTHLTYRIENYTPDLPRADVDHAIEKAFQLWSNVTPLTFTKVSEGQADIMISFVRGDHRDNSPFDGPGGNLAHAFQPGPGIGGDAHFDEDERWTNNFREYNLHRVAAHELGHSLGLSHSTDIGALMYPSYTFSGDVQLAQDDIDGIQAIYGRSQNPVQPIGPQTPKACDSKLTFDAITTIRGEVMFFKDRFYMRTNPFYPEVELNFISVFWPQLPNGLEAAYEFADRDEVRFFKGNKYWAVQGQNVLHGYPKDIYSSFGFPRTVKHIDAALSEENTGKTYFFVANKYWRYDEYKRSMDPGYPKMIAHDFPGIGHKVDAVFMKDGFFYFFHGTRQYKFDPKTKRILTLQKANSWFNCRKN
`COCOC1CSC(C)(C)[C@H](C(=O)NO)N(S(=O)(=O)c2ccc(OC)cc2)C1` (some centres undefined) showed an IC50 of 1 nM.

These compounds were tested against Stromelysin-1 (Homo sapiens, UniProt P08254).
Sequence of Stromelysin-1 (P08254 whole entry): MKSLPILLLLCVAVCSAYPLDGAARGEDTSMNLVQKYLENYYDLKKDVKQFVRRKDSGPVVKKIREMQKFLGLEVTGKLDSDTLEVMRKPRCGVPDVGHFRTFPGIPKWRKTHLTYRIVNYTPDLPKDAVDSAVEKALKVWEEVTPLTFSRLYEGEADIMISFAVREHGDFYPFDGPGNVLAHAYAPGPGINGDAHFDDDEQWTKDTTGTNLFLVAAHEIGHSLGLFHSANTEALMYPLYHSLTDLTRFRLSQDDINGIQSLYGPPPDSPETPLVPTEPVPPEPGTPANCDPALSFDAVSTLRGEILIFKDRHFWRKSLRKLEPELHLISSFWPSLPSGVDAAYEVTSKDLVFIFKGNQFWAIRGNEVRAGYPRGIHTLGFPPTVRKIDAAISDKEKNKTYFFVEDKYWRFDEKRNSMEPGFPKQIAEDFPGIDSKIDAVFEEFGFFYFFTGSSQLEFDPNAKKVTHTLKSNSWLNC
In the case of `COc1ccc(S(=O)(=O)N2CCCCCSC(C)(C)[C@@H]2C(=O)NO)cc1`, the IC50 is reported as 7.2 nM. With `COc1ccc(S(=O)(=O)N2CCOCCS(=O)(=O)C(C)(C)[C@@H]2C(=O)NO)cc1` the IC50 was 45 nM. In the case of `COc1ccc(S(=O)(=O)N2CSCC2C(=O)NO)cc1` (centres undefined), the IC50 is reported as 175 nM. With `COc1ccc(S(=O)(=O)N2[C@@H](C(=O)NO)C(C)(C)SCC[C@H]2c2ccccc2)cc1` the IC50 was 26 nM. With `COc1ccc(S(=O)(=O)N2CCOCCSC(C)(C)[C@@H]2C(=O)NO)cc1` the IC50 was 0.7 nM. Work on `CC1(C)SCCCN(S(=O)(=O)c2ccc(Oc3ccncc3)cc2)[C@H]1C(=O)NO` yielded an IC50 of 6.3 nM. `COc1ccc(S(=O)(=O)N2CCCCC(C)(C)[C@@H]2C(=O)NO)cc1` was tested, and the IC50 was 3.3 nM. In the case of `COc1ccc(S(=O)(=O)N2CCCC2C(=O)NO)cc1` (centres undefined), the IC50 is reported as 258 nM. Compound `COCOC1CSC(C)(C)[C@H](C(=O)NO)N(S(=O)(=O)c2ccc(OC)cc2)C1` (some centres undefined) has an IC50 of 1 nM. Compound `COc1ccc(S(=O)(=O)N2CCS(=O)(=O)CC2C(=O)NO)cc1` (centres undefined) has an IC50 of 737 nM. For `COc1ccc(S(=O)(=O)N2[C@@H](c3ccccc3)CCSC(C)(C)[C@@H]2C(=O)NO)cc1`, the IC50 was 33 nM. `COc1ccc(S(=O)(=O)N2CCS(=O)(=O)C(C)(C)[C@@H]2C(=O)NO)cc1` showed an IC50 of 18.5 nM. Work on `CC1(C)SCCCN(S(=O)(=O)c2ccc(-c3ccccn3)s2)[C@H]1C(=O)NO` yielded an IC50 of 1.1 nM. `COc1ccc(S(=O)(=O)N2CCCSC[C@@]2(C)C(=O)NO)cc1` was tested, and the IC50 was 31 nM. With `COc1ccc(S(=O)(=O)N2CCOCC2C(=O)NO)cc1` (centres undefined) the IC50 was 5.8 nM. `CC1(C)SCCCN(S(=O)(=O)c2ccc(-c3ccc(F)cc3)cc2)[C@H]1C(=O)NO` showed an IC50 of 6.5 nM. For `COc1ccc(S(=O)(=O)N2C[C@@H](O)CS(=O)(=O)C(C)(C)[C@@H]2C(=O)NO)cc1`, the IC50 was 7.3 nM. With `COc1ccc(S(=O)(=O)N2CCCCCC2C(=O)NO)cc1` (centres undefined) the IC50 was 7 nM.
